Experimental data as given in PubChem BioAssay AID686979 (National Center for Advancing Translational Sciences (NCATS), 2013).
The campaign covered roughly 420,000 compounds. About 50,000 (12%) were called active. This list was built around the results that the source calls inconclusive (neither active nor inactive); the mix of calls is not that of the screen. Calls come from the whole dose curve; as a rule, active = well fitted inhibition curve with a large enough effect; inconclusive = small, poorly fitted or top-dose-only effect; inactive = flat fitted curve, though single readings scatter. Potencies of inconclusive entries are left out as doubtful fits.

Assay: qHTS for Inhibitors of human tyrosyl-DNA phosphodiesterase 1 (TDP1): qHTS in cells in presence of CPT; note: nearly all actives have a fitted effect of over 55% in size
Conditions: chicken DT40 Tdp1-/-;hTDP1 cells + 20 nM CPT, ATP luminescence, 48 h; activity change, negative = growth inhibition: at 46.2 µM (top of the series) unless noted
How it was run: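 Chicken DT40 Tdp1-/- cells complemented with human TDP1, 400 cells/well, exposed to compounds plus 20 nM camptothecin for at least 48 h at 37 C; viability read as ATP content by CellTiter-Glo luminescence.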
% is set by controls: 0 for no effect and ±100 for the full control effect; potency is the fitted concentration of half-maximal effect; tags give direction and shape of the fitted curve.

SMILES	Potency	activity change, negative = growth inhibition
Cc1ccc2c(C)nc(Nc3nc(CSc4nc5ccccc5s4)cc(=O)[nH]3)nc2c1	inconclusive [inhibitor, full curve]	
COc1ccc(-c2oc(=O)c3cc(OC)c(OC)cc3c2/C=C/c2ccc(F)cc2)cc1		inactive: -8.23%
CC(C)(C)c1ccc(O)c(O)c1	active: 34.4 µM	
CCC(OC(=O)c1cc2sccc2n1C)C(=O)NCc1ccco1 (configuration not stated)	inconclusive [inhibitor, single point]	
Cc1ccc(S(=O)(=O)N2CCC(C(=O)NCCC3=CCCCC3)CC2)cc1C	inconclusive [inhibitor, single point]	
COc1ccc(C)cc1C1=CC(=O)C[C@H](c2ccc(F)cc2)C1		inconclusive: -34.8% [inhibitor]
Cc1ccc(S(=O)(=O)N2CCN(S(=O)(=O)c3cccs3)CC2)cc1		inactive: 1.29%
O=C(CSc1nnc(C2COc3ccccc3O2)o1)N1CCCc2ccccc21 (configuration not stated)	inconclusive [inhibitor, single point]	
CC(C)c1nc2sc3c(NCc4ccco4)ncnc3c2c2c1COC(C)(C)C2	active: 18.4 µM	
FC(F)(F)C1CCCN(c2nsc3ccccc23)C1 (configuration not stated)	active: 2.31 µM	
CN(Cc1ccccc1)C(=O)c1ccc2nc([C@H]3C[C@H](O)[C@@H](CO)O3)[nH]c2c1		inactive: 4.86%
O=C(CCSc1ccc(Br)cc1)Nc1cccnc1		inactive: 13.9%
CCn1nnnc1SCC(=O)NC1CCCC1		inactive: -5.53%
COc1ccc(-c2nn(-c3ccccc3)cc2C(=O)NCC(c2cccs2)N2CCOCC2)cc1 (configuration not stated)	inconclusive [inhibitor, single point]	
O=C(CC1CCCC1)Nc1ccc(Cl)c(S(=O)(=O)N2CCOCC2)c1	inconclusive [inhibitor, single point]	
Cc1nc(-c2ccncc2)nc(NCCNc2ncccc2C(F)(F)F)c1Cl	active: 11.6 µM	
CC(C)(C)/C(O)=C/c1nc2cc(Cl)ccc2oc1=O	inconclusive [inhibitor, single point]	
C/C(=N\NC(=O)c1ccc(F)cc1)c1ccccn1	active: 0.92 µM	
CCCN(C(=O)c1cc(S(=O)(=O)N2CCCCC2)ccc1Cl)C1CCS(=O)(=O)C1 (configuration not stated)	inconclusive [inhibitor, partial curve]	
CN=c1sc2ccccc2n1CC(O)COc1ccccc1 (configuration not stated)	inconclusive [inhibitor, single point]	
C#CCSc1nsc(SCC#C)c1C#N	inconclusive [inhibitor, single point]	
CC(=O)Nc1cccc(-c2csc(Nc3cccc(C)n3)n2)c1	inconclusive [inhibitor, single point]	
CCOc1ccccc1NC(=O)COc1ccc2ccc(=O)oc2c1		inactive: 0.509%
O=C(NNC(=O)c1ccccc1OCc1ccccc1)c1ccccc1O	active: 5.8 µM	

SMILES	Potency	activity change, negative = growth inhibition
CN1C(=O)C(CC(=O)NCCc2ccccc2)N(NC(=O)c2ccc(Cl)cc2)C1=S (configuration not stated)	inconclusive [inhibitor, single point]	
Cc1ccc(S(=O)(=O)N2CCN(c3ccc([N+](=O)[O-])cn3)CC2)cc1		inactive: 13%
CCCCCCCCCCCCCCCC[n+]1ccc(CC(O)c2c(C)[nH]c3ccccc23)c2ccccc21 (configuration not stated)	active: 1.58 µM	
Cc1ccc(S(=O)(=O)NC(C)C(=O)OCC(=O)Nc2sccc2C(N)=O)cc1 (configuration not stated)		inactive: -9.24%
COc1ccc(/C=N/NC(=S)N[C@H]2CC3CCC2C3)cc1 (some centres not stated)	inconclusive [inhibitor, single point]	
Cc1cccc(/N=C2/NC(=O)C(Cc3ccccc3)S2)n1 (configuration not stated)	inconclusive [inhibitor, single point]	
CCC1CCCCN1C(=O)c1ccccc1OC1CCN(S(C)(=O)=O)CC1 (configuration not stated)	inconclusive [inhibitor, single point]	
COc1cccc(CN(Cc2ccco2)c2cnc(S(C)(=O)=O)nc2C(=O)Nc2cccc(Cl)c2C)c1		inconclusive: -30.3% [inhibitor]
O=C(/C=C/c1ccc(Cl)c([N+](=O)[O-])c1)Nc1ccc(N2CCCC2)cc1	inconclusive [inhibitor, single point]	
COC(=O)C1=C(C)NC2=C(C(=O)CCC2)C1c1coc2ccccc2c1=O (configuration not stated)		inactive: 1.01%
Cc1cc(C)c(C(=O)C(C)OC(=O)C2=COCCO2)cc1C (configuration not stated)		inactive: -5.2%
Cn1c(SCC(=O)N2CCCc3ccccc32)ncc(C(=O)Nc2ccc(Cl)cc2)c1=O		inactive: -18.7%
COc1ccc(NC(=O)Nc2cccs2)cc1Cl	inconclusive [inhibitor, single point]	
COc1cc(OC)cc(C(=O)N[C@H](C(=O)OCC(=O)c2ccc(C)c([N+](=O)[O-])c2)C(C)C)c1		inactive: -23.6%
CCOC(=O)C1=C(C)Nc2sc(C(=O)c3ccc(Br)cc3)c(N)c2C1c1ccc(C(=O)OC)cc1 (configuration not stated)	inconclusive [inhibitor, single point]	
COc1ccc(-c2coc3c(C(=O)NC(C)C)cccc23)c(C)c1	inconclusive [inhibitor, single point]	
CCCCOc1ccccc1Cn1c(=O)oc2ccc(C)cc21	inconclusive [inhibitor, single point]	
Cc1ccc(S(=O)(=O)N2CCN(CC(=O)Nc3ccc4c(c3)CCC4)CC2)cc1C		inactive: -72.3%
Cc1ccc(S(=O)(=O)N2CCN(C(=O)COC(=O)CCOc3cc(C)ccc3C)CC2)cc1	inconclusive [inhibitor, single point]	
O=S(=O)(Nc1nc2ccccc2nc1Nc1cccc(S(=O)(=O)N2CCCCC2)c1)c1ccccc1	active: 6.51 µM	
CCc1nc2nc(C)cc(Nc3ccc(OC)cc3)n2n1	inconclusive [inhibitor, single point]	
CCOC(=O)C1CCN(Cc2cccc(Oc3ccc(Cl)cc3)c2)CC1	inconclusive [inhibitor, single point]	
O=C(c1ccc(F)cc1)N1CCN(c2ccc([N+](=O)[O-])c(N3CCCCC3)c2)CC1	inconclusive [inhibitor, single point]	
CN(C1CCCCC1)S(=O)(=O)c1ccc2c(c1)c(=O)c(C(=O)NCCc1ccc(Cl)cc1)cn2C	inconclusive [inhibitor, single point]	

SMILES	Potency	activity change, negative = growth inhibition
CCCCn1nnnc1C(c1cc2ccccc2o1)N1CCN(C(=O)OCC)CC1 (configuration not stated)	inconclusive [inhibitor, single point]	
O=C(Oc1cccc2cccnc12)c1cccc(N2C(=O)C3C4CCC(C4)C3C2=O)c1 (configuration not stated)	active: 4.11 µM	
Cc1oc(-c2ccccc2F)nc1CS(=O)(=O)CC(=O)NCCCN1CCc2ccccc2C1		inactive: -9.61%
COc1ccc(NCC(=O)Nc2ccc(Br)cc2F)c(OC)c1	inconclusive [inhibitor, single point]	
CC1=CC(C)(C)Nc2ccc(OC(=O)CN3C(=O)c4cccc5cccc(c45)C3=O)cc21	active: 2.91 µM	
O=C1N[C@@H](Cc2ccccc2)C(=O)N2[C@H]1C[C@]1(Br)c3ccccc3N(S(=O)(=O)c3ccc(F)cc3)[C@H]21	active: 18.4 µM	
Nc1nc(-c2ccccc2)cc(-c2ccccc2O)n1	inconclusive [inhibitor, single point]	
CC1CCN(C(=O)Cn2c(SCC(=O)Nc3nccs3)nc3ccccc32)CC1		inactive: -29.5%
COc1ccc(/C=C(/NC(=O)c2ccc(C)cc2)c2nc3ccccc3[nH]2)cc1OC		inconclusive: -32.9% [inhibitor]
CCOC(=O)C1CCCN(C(=O)c2cc3cc(F)ccc3[nH]2)C1 (configuration not stated)	inconclusive [inhibitor, partial curve]	
O=S(=O)(Cc1ccccc1)N1CCN(C2Cc3ccccc3C2)CC1	inconclusive [inhibitor, single point]	
CCS(=O)(=O)N1CCC(C(=O)NCCC(C)C)CC1		inactive: -1.16%
O=C(OCC(=O)N1CCN(c2ccccc2)CC1)c1ccc(O)cc1O		inactive: -14.9%
Cc1ccc(-c2nnc(Nc3cccc(Cl)c3)c3ccccc23)cc1S(=O)(=O)NCC1CCCO1 (configuration not stated)	active: 23.1 µM	
CC(=O)Nc1ccc(NC(=O)C(C)OC(=O)CCCOc2ccc(Cl)c(C)c2)cc1 (configuration not stated)	inconclusive [inhibitor, single point]	
Cn1nc(-c2ccc(OCC(=O)Nc3cccnc3)cc2)c2ccccc2c1=O	inconclusive [inhibitor, single point]	
c1ccc(CSc2nnc(NC3CCCCC3)s2)cc1	inconclusive [inhibitor, single point]	
CCc1ccc(-c2nc(CN3CCC(C(=O)NCc4ccc(F)cc4)CC3)c(C)o2)cc1	inconclusive [inhibitor, single point]	
Nc1ccc2nc[nH]c2c1	inactive	
N#Cc1ccc(-c2ccc(Cl)cc2)nc1Oc1ccc(F)cc1	inconclusive [inhibitor, full curve, poor fit]	
O=C(/C=C/c1ccccc1)NC(=S)Nc1ccccc1O	inconclusive [inhibitor, single point]	
CCOc1ccc(S(=O)(=O)N2CCCCC2)cc1NC(=O)Cc1ccc(OC)cc1	inconclusive [inhibitor, single point]	
CCOC1(OCC)OC(c2ccccc2)=C(C#N)C(C=Cc2ccccc2)C1(OCC)OCC (configuration not stated)	inconclusive [inhibitor, single point]	
Oc1ccc(Cl)cc1C1C=C(c2ccc3c(c2)OCO3)NC(c2ccc(Cl)cc2)N1 (configuration not stated)	active: 3.98 µM	
